± gives the standard deviation of the averaged measurements. Over roughly 4,100 sequences, “arbitrary fluorescence units” has its median near 780; the highest 2% begin near 22,000. Some of the results follow.

The assay deals with T1, ETS1 (UniProt P14921).
T1 sequence: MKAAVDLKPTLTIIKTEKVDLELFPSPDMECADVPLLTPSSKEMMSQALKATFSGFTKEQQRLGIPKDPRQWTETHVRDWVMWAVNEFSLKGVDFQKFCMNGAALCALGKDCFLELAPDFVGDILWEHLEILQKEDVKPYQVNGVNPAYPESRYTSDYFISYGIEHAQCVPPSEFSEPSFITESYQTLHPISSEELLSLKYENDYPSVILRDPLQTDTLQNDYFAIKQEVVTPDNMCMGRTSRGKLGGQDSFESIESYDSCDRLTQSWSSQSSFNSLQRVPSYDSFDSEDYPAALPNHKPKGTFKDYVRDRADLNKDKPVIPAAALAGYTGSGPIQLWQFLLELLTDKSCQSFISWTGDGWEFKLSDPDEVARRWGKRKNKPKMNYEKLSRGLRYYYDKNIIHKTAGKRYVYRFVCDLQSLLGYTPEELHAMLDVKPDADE
As to the kind of experiment: ETS1 binding intensity (PBM fluorescence), ETS1 alone (arbitrary fluorescence units); higher = stronger binding. The following applies: ETS1 concentration 1 nM; RUNX1 concentration 0 nM. The essentials: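 Recombinant full-length human ETS1 was applied at 1 nM, without RUNX1, to double-stranded Agilent 4 × 180k arrays of 36-bp genomic probes carrying a mutated RUNX1 partner site, following standard PBM protocols. Detection used an anti-ETS1 antibody (Cell Signaling Technology 14069) and an Alexa488-conjugated secondary antibody, with scanning on a GenePix 4400A. Each sequence was printed as four replicate spots. Binding level is the spot fluorescence intensity, summarised across replicates and not normalised.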
CTGCTAGCGGAAGCAGCCAAGCCTACAGGCTCCAGG: the ETS1 binding intensity turned out to be 1940. On to CGGCACCACTTCCGAGTGGAGCACGCGTTGGCCGAG, for which the ETS1 binding intensity was determined as 3360. As for ACTATTTTTAGACTTCCCCACCCCGCTGTTTCAAGG, the ETS1 binding intensity worked out at 632. TGAGATTAGTGGATAAGTTGGTGCCGGATGTCATCC returned an ETS1 binding intensity of 716. The sequence GGCACACTGCAGTCGCACCATAAGCTTCCTGGATGG registered an ETS1 binding intensity of 448. CTCGTGGCAACATCTGGCGGTGCCCCGGCATCCGGT: the ETS1 binding intensity was determined as 1630. TAGCACCCAAAAGCACCTACTGGCTTCCGGCACCTC came in with an ETS1 binding intensity of 1380. Then TGGGGAGGCAGGAAACGGGCCTTGTAGTTGGGGGGT, with 3950; and CTTGGCTGGGGTTCTCTGGTAGGAAGTGAGAGAGGT, with 466. In the case of CAGTGGCTTCCTCCCCACCTCCTACCCCATTCAATG, the ETS1 binding intensity was 2000. In the case of GTGGAAGTCACAGGGAGTGGGCAGGATGTAGCAGAA, the ETS1 binding intensity is 1150. For GTAGTAAGTTGTAGTTAAAAGAGAGGAAGTTCAGAG, the ETS1 binding intensity was 550. Take AGTGGGTGCTTTTCAGCCCTTATCTTCCTGGACCAT: the ETS1 binding intensity was 353. To CCGAGTGGCAGTTGTTTCAAGATGGCGGACGTGGCA belongs 389 ± 29; to TTGGATGTGACTTGCCAAAAAAAAGCATATCCTTGG, 357; to AGGTTAAGTGAGGTTTCTCTTCCTGTTTCCACCCTG, 1580. Sequence ATGTCAGGAAGAGGCTCAGGGCTGTAGTTTCTCTGT came in with an ETS1 binding intensity of 519. Sequence TTCTTCACTTCCTTCTCTCCGTGCTTTCGCCATTAG yielded an ETS1 binding intensity of 2950.

In turn, GGGTTTTCCGCGCGCCAGCTGAGGTGCTTGCTGGGA returned an ETS1 binding intensity of 631.

With GGTGTTGTCAAAACAAACCTCCCACATCCCGTACGT, the ETS1 binding intensity was 506. CAGCTGCAGGCCTGGGTGTACGGAGCCCGGAACAGG had an ETS1 binding intensity of 567.

TTGGCTTGGGGCTGGACTACATTTCCCAGCATCCCT had an ETS1 binding intensity of 425. As to AACTGAACCTCCACCACTTAACCTCTAAGGAAGCGG, the ETS1 binding intensity came to 405. Consider GAGCCTGTTGCTTCCGGTTCAGAGCCCACGTGCTGG, for which the ETS1 binding intensity came out at 22200. CGGGCCCCAAAATGGTGGAGGGGCAGCTTCCGGCAG came in with an ETS1 binding intensity of 1280. Then CCAAGCACTTCCTGCTGTTAGCTTTTTGGGCTGAGT, with 10100; and GATTGCCGTTGGGACTTTCCCTAAGTCATTTCCTGT, with 2220; and CTAGCCTGTGATTTTTCTGAGAATGCAGGATATGTC, with 412.

On to GGACACAGGCTTCCGCGTTACCGACACGGCGTGGGG, for which the ETS1 binding intensity was 1300. Consider ATCAGAGCGGAAATCTCAGTCTTGTGAGGGGACCTG, for which the ETS1 binding intensity was 2170. Sequence AGTACAAAGGGGAAATGTCTCTTGGTAGTTGATAAG had an ETS1 binding intensity of 414. On to GTCACCATTTCCGGGCCTCCACGGTGTCCCCACCCC, for which the ETS1 binding intensity was 13600. Turning to GACGGGATGTAGGTTTTCAGCCGTGGACACAGGAGA, the ETS1 binding intensity turned out to be 936.

With CCTGTCTGCTTCCGCCCGGCTTCGGCCCTCAGTCAA, the ETS1 binding intensity amounted to 7020.

As for GCACCACCGGAAGTAGGGCTCAACCTCCGCTCATTT, the ETS1 binding intensity was determined as 24400. To AAGACAGTCGAGGTGGGCGGGGACAGGAAGTAAGAC belongs 2340; to AGGAAACCCCAAGTTATTCCCTGCAAAGGTCTTGAT, 429. CCGAGGTTGCAAGAAACACCCACCATTTCCGGGTCT showed an ETS1 binding intensity of 2110. Then CTAGCTGTGGACAGGAAACGAGTGGATTTTGTGATC, with 3740.

As to TCACCTTCTGCCAAAACTGTTAAGTTTCCTGAGGCC, the ETS1 binding intensity was found to be 428.

GTCCCCCTTCCGGCTGCAGGTTGGGGTTTGGAACCT registered an ETS1 binding intensity of 8100. Sequence GCCCCCAACTCCCAGACACAGCCCCTTCCTCCTCCC yielded an ETS1 binding intensity of 410. In turn, AGCACCCCCTTGAGGTGTCTGGAGGAAGCGGCGCGG came in with an ETS1 binding intensity of 370. As to TGCTTAGAACACGGAAACACTGAGCTTTTACTTTGA, the ETS1 binding intensity is 490. Sequence ACGGAGCTGTAGTTTAACGTTTCCGGTTAGTGGCTA yielded an ETS1 binding intensity of 9670. To ACTGCCATCCGCCTCAAACGCCAGCCGTAGGCTCTC belongs 942; to TTTTTGGGGTTTAGCCCTCAGAGCTTCCTGCCAGAG, 702; to CGGGTTAAACAGCAGCCGCGCCCACACTTCCGGGGT, 2120. Sequence AGTGCTGTAATGAGTCATTGTTTATAGGAAGCACCC displayed an ETS1 binding intensity of 384. Sequence GTGCAGGGCCCGGAAGCTCAGTGTGATTAAAGACAT registered an ETS1 binding intensity of 1800. Consider CTGTGCTGTCATGTGACGGAGGCCGGAAGGCAGGTC, for which the ETS1 binding intensity was determined as 548. For GTGGGACCTGCTTCCTTAGCCCAAAAGATGCAGAGC, the ETS1 binding intensity was found to be 821. AAACCAACCCCAGGGAGATATAATATCTCTTCCTGT showed an ETS1 binding intensity of 522.

For ATGAGCTATTTCCTGCCTTGTTGTCAGAGCCAGACT, the ETS1 binding intensity came out at 23500. The sequence CCCATCCTGAGAAGGGACTGAGGCGGCGGCGCAGAA registered an ETS1 binding intensity of 1070. Then CACGTCGCGAGCGCACAGGGGGAAGTTCTCCCGCCA, with 399; and CCGGGCTGCGGAAGGCGGGAACTCTGCTGTTCGCGG, with 404 ± 58; and GGGAGCGGCGCGGCGAGAGAGAGGCGGATGAAGGGG, with 456.

The sequence GCCCGGAAGCGCGACGCTGGAGCGGCGGGGTCACCA showed an ETS1 binding intensity of 3080. With GCGCACCCGCTTCGGCCTCCACAGGAAGTGCCCGGC, the ETS1 binding intensity came to 1210. In turn, CCGGTTCCCAGAGAGCAGGGGGCTTCCGGCGGGGTA displayed an ETS1 binding intensity of 2590.

For the sequence TCCAACACAACCCCAGCCCCCGTGCCGGAAGCTGTT, the ETS1 binding intensity came to 494.

The values are drawn from the supplement of paper PMC10681739.
